These results are taken from the antibiotic and cytotoxicity screens of Wong et al. (2023).

For test [1], the system named is HSkMC (human skeletal muscle cells). As to the kind of experiment: cytotoxicity call (relative viability < 0.9). To be noted: 10 µM.
For test [2], the system named is HepG2. The experiment in a line: cytotoxicity call (relative viability < 0.9). To be noted: 10 µM.
Test [3] relates to S. aureus RN4220. The experiment in a line: growth inhibition call (relative growth <= 0.2). To be noted: 50 µM.

Molecules are shown by their SMILES. This is one part of the list.

As for `O=S(=O)([O-])NC1CCCCC1.[Na+]`, the cytotoxicity call in test [1] and in test [2] was “inactive” each time. Moreover, in test [3], the growth inhibition call was “inactive”.

On to `C[C@@H](Oc1ccccc1Cl)c1nc2ccc(Cl)cc2[nH]1`, for which the cytotoxicity call in test [1] and in test [2] was “inactive” throughout. The growth inhibition call in test [3] is “active”.

With `CNC[C@H]1Oc2ccc(NC(=O)CCN3CCOCC3)cc2CC(=O)N([C@@H](C)CO)C[C@H]1C`, the cytotoxicity call in test [1] and in test [2] was “inactive” in each case. Further, the growth inhibition call in test [3] is “inactive”.

For `CO[C@H](CN(C)C(=O)c1ccc2c(c1)OCO2)[C@@H](C)CN([C@H](C)CO)S(=O)(=O)c1ccc(Cl)cc1`, the cytotoxicity call in test [1] and in test [2] was “inactive” in each case. Besides, the growth inhibition call in test [3] was “inactive”.

In the case of `NC(=O)NC[C@H](N)C(=O)O`, the cytotoxicity call in test [1] and in test [2] was “inactive” each time. In addition, the growth inhibition call in test [3] was “inactive”.

On to `CN(C)CC(=O)N[C@H]1CC[C@H](CCNC(=O)C2CCC2)O[C@@H]1CO`, for which the cytotoxicity call in test [1] and in test [2] was “inactive” each time. The growth inhibition call in test [3] is “inactive”.

Take `CN(C)CCCNC(=O)C[C@H]1CC[C@H]2[C@@H](COc3ccc(NC(=O)NC4CCCC4)cc3C(=O)N2C)O1`: the cytotoxicity call in test [1] and in test [2] was “inactive” in each case. Besides, the growth inhibition call in test [3] is “inactive”.

For the compound `CCCN(C)C[C@@H]1Oc2cc(C#Cc3cccc(OC)c3)ccc2S(=O)(=O)N([C@@H](C)CO)C[C@@H]1C`, the cytotoxicity call in test [1] and in test [2] was “inactive” in each case. Moreover, the growth inhibition call in test [3] is “inactive”.

Turning to `COc1ccc(NC(=O)Nc2ccc3c(c2)C(=O)N([C@@H](C)CO)C[C@@H](C)[C@H](CN(C)C(=O)Nc2c(C)noc2C)OCCCC[C@@H](C)O3)cc1`, the cytotoxicity call in test [1] and in test [2] was “inactive” each time. Further, the growth inhibition call in test [3] is “inactive”.

Regarding `C[C@@H]1CN([C@@H](C)CO)C(=O)c2cc(C#CC3CCCC3)cnc2O[C@@H]1CN(C)S(=O)(=O)c1cccc(F)c1`, the cytotoxicity call in test [1] and in test [2] was “inactive” each time. In addition, in test [3], the growth inhibition call was “inactive”.

In the case of `O=C(C[C@@H]1CC[C@@H]2[C@H](COC[C@@H](O)CN2S(=O)(=O)c2ccccc2)O1)N[C@H]1CCN(Cc2ccccc2)C1`, the cytotoxicity call in test [1] and in test [2] was “inactive” throughout. Moreover, the growth inhibition call in test [3] is “inactive”.

Regarding `C[C@@H]1CN([C@@H](C)CO)C(=O)c2cc(NC(=O)CCCCCC(=O)Nc3ccccc3N)ccc2O[C@@H](C)CCCCO[C@@H]1CN(C)C(=O)Nc1ccc(C(F)(F)F)cc1`, the cytotoxicity call in test [1] and in test [2] was “inactive” each time. In addition, in test [3], the growth inhibition call is “inactive”.

With `C[C@@H]1CN([C@H](C)CO)C(=O)c2cc(NC(=O)C3CCCCC3)ccc2O[C@@H](C)CCCCO[C@@H]1CN(C)C(=O)Cc1ccccc1`, the cytotoxicity call in test [1] and in test [2] was “inactive” throughout. Besides, the growth inhibition call in test [3] was “inactive”.

In the case of `COc1ccc(S(=O)(=O)Nc2ccc3c(c2)C(=O)N([C@@H](C)CO)C[C@@H](C)[C@H](CN(C)Cc2ccc(C(=O)Nc4ccccc4N)cc2)OCCCC[C@@H](C)O3)cc1`, the cytotoxicity call in test [1] and in test [2] was “inactive” in each case. Also, the growth inhibition call in test [3] is “inactive”.

For `C[C@H](CO)N1C[C@H](C)[C@@H](CN(C)Cc2cccc(C(F)(F)F)c2)OCc2ccccc2-c2c(n(C)c3ccccc23)C1=O`, the cytotoxicity call in test [1] and in test [2] was “inactive” each time. Moreover, in test [3], the growth inhibition call is “inactive”.

For `C[C@@H]1CN([C@H](C)CO)C(=O)c2cc(NC(=O)Nc3ccc(F)cc3)ccc2O[C@@H](C)CCCCO[C@@H]1CN(C)C(=O)Cc1ccccc1`, the cytotoxicity call in test [1] and in test [2] was “inactive” in each case. Further, the growth inhibition call in test [3] was “inactive”.

As for `C[C@@H]1CCCCO[C@@H](CN(C)C(=O)Nc2ccc(C(F)(F)F)cc2)[C@@H](C)CN([C@H](C)CO)C(=O)c2cc(NC(=O)CCCCCC(=O)Nc3ccccc3N)ccc2O1`, the cytotoxicity call in test [1] and in test [2] was “inactive” each time. Further, the growth inhibition call in test [3] was “inactive”.

As for `CCS(=O)(=O)N1C[C@]2(CN(Cc3cccc(c3)Cl)[C@H](CO)c3c2c2ccc(cc2n3C)OC)C1`, the cytotoxicity call in test [1] and in test [2] was “inactive” throughout. The growth inhibition call in test [3] is “inactive”.

Regarding `C[C@@H]1CN([C@H](C)CO)S(=O)(=O)c2ccc(Br)cc2O[C@@H]1CN(C)Cc1ccc(C(=O)O)cc1`, the cytotoxicity call in test [1] and in test [2] was “inactive” in each case. The growth inhibition call in test [3] is “inactive”.

Take `COc1ccc(C#Cc2ccc3c(c2)O[C@H](CN(C)S(=O)(=O)c2ccccc2F)[C@H](C)CN([C@@H](C)CO)S3(=O)=O)cc1`: the cytotoxicity call in test [1] and in test [2] was “inactive” throughout. The growth inhibition call in test [3] was “inactive”.

`C[C@@H]1CN([C@H](C)CO)C(=O)Cc2cc(NC(=O)Cc3ccccc3)ccc2O[C@H]1CN(C)S(=O)(=O)c1ccccc1`: the cytotoxicity call in test [1] and in test [2] was “inactive” throughout. Besides, the growth inhibition call in test [3] was “inactive”.

Take `C[C@@H]1CCCCO[C@H](CN(C)C(=O)Nc2ccccc2)[C@@H](C)CN([C@H](C)CO)C(=O)c2cc(NS(=O)(=O)c3ccc(F)cc3)ccc2O1`: the cytotoxicity call in test [1] and in test [2] was “inactive” in each case. In addition, in test [3], the growth inhibition call was “inactive”.

Take `Cc1ccccc1S(=O)(=O)N1C[C@@H](O)COC[C@@H]2O[C@H](CC(=O)NCc3ccccc3Cl)CC[C@H]21`: the cytotoxicity call in test [1] and in test [2] was “inactive” each time. Besides, the growth inhibition call in test [3] is “inactive”.

As to `COCCNC(=O)C[C@H]1C[C@@H]2c3cc(NC(=O)COC)ccc3O[C@@H]2[C@H](CO)O1`, the cytotoxicity call in test [1] and in test [2] was “inactive” throughout. In addition, the growth inhibition call in test [3] is “inactive”.

With `CCc1nc2ccc(C(=O)N3CCN(S(=O)(=O)CC)CC3)cn2c1N(C)Cc1ccc(Cl)cc1`, the cytotoxicity call in test [1] and in test [2] was “inactive” throughout. The growth inhibition call in test [3] is “inactive”.

On to `C[C@H](CO)N1C[C@H](C)[C@@H](CN(C)C(=O)Nc2ccc(N3CCN(C)CC3)cc2)OCc2cn(nn2)CCCC1=O`, for which the cytotoxicity call in test [1] and in test [2] was “inactive” in each case. Further, the growth inhibition call in test [3] is “inactive”.

As to `CC(C(=O)O)c1ccc2c(c1)[nH]c1ccc(Cl)cc12` (stereo unspecified), the cytotoxicity call in test [1] and in test [2] was “inactive” throughout. The growth inhibition call in test [3] is “inactive”.
